Results taken from article PMC5575267, “A novel function of cIAP1 as a mediator of CHIP-driven eIF4E regulation” (Scientific Reports, 2017).
These are yes or no findings as the source states them, for the method shown. For part of these data: Binding seen in cells or lysates may run through a third protein. Some entries that bind do so weakly or less than the wild type. For part of these data: Where a sequence is shown, tags or fusion partners need not be part of it.

Chains of the proteins cited; added tags and fusions are not shown. Lines headed by an entry give the natural chain unless they say otherwise; changes in a name come on top.
UniProt P06730: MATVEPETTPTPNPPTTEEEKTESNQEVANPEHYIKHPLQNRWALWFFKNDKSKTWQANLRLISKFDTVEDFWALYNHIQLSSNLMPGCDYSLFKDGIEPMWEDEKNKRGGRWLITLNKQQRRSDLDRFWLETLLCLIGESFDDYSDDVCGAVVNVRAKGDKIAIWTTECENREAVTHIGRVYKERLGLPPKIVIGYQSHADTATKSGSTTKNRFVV
UniProt Q9UNE7: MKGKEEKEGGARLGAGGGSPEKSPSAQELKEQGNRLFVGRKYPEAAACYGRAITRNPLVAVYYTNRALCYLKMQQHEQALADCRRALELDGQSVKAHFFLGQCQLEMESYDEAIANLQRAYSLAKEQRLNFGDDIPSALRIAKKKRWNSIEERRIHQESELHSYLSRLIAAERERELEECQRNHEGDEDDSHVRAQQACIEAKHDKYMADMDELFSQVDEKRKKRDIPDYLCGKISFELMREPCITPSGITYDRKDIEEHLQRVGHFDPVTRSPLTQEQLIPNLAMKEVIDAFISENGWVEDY
UniProt Q13490: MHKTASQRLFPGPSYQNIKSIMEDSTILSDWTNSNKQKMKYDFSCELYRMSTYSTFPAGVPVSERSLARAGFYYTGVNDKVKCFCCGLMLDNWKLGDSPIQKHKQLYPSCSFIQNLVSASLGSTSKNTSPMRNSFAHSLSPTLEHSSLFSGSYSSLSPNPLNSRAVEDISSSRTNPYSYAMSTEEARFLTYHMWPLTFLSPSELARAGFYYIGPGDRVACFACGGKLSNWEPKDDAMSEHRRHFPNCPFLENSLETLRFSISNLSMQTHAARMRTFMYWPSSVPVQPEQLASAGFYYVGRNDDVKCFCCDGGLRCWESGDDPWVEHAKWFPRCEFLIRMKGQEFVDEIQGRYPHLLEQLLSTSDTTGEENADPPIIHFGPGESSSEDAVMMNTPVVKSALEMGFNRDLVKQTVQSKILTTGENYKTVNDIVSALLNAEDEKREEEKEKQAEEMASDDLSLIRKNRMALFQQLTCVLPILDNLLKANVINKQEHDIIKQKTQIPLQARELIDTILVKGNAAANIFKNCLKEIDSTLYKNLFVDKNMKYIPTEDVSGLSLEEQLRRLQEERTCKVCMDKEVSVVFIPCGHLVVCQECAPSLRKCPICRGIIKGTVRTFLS
UniProt P98170: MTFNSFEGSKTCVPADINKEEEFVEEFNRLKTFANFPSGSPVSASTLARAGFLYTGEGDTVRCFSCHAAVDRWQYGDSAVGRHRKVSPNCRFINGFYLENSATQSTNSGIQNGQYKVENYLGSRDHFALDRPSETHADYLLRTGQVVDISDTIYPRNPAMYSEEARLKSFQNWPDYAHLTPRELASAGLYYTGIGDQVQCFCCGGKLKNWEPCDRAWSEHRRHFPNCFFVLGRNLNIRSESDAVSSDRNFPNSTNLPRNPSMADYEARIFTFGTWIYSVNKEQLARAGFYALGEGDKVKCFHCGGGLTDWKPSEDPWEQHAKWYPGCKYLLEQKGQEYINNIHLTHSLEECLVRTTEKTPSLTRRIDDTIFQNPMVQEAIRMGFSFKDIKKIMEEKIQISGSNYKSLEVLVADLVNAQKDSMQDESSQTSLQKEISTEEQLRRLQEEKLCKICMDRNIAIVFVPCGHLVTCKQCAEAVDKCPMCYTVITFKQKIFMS
UniProt Q13489: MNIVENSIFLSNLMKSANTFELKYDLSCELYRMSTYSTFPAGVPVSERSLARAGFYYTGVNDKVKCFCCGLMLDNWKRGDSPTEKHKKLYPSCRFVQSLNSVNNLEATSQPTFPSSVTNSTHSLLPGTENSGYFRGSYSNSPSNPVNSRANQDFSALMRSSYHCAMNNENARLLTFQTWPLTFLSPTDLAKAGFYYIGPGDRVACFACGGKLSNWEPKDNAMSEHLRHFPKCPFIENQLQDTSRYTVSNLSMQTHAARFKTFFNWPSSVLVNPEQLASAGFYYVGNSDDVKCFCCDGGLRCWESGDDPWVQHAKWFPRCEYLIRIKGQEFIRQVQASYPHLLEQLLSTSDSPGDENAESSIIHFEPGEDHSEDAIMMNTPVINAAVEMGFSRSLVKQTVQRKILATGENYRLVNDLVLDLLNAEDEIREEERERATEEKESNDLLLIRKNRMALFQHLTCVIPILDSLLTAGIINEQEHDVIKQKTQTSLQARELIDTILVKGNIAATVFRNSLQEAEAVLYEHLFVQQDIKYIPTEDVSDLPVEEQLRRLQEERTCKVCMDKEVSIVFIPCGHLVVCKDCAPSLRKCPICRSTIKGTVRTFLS

How the values were obtained:
[1] = molecular target: Myc- and His-tagged eIF4E protein (eIF4E-MycHis) (UniProt P06730); experiment: co-IP; HEK 293 cells co-transfected with eIF4E-MycHis and one 6Myc-IAP; lysate precipitated with anti-His antibody, WB with anti-Myc antibody
GST-CHIP K30A = GST-CHIP K30A (UniProt Q9UNE7); experiment: pull-down; GST pull-down: GST or GST fusion protein on glutathione beads incubated with 6His-tagged protein in 100 mM Tris pH 8.0, 100 mM NaCl, 2 mM EDTA, 5% glycerol, 2 h at 4 °C; WB with anti-His antibody; both purified
[2] = molecular target: 6Myc-cIAP1 WT (C1) (human) (UniProt Q13490); experiment: co-IP; HEK 293 cells co-transfected with 6Myc-cIAP1 and HA-CHIP WT or K30A; lysate precipitated with anti-Myc antibody, WB with anti-HA antibody

6Myc-XIAP (from UniProt P98170 1-497)
binding [1]: no binding

eIF4E-6His (from UniProt P06730 1-217)
binding (GST-CHIP K30A): no binding

HA-CHIP WT (from UniProt Q9UNE7 1-303)
binding [2]: binds

6Myc-cIAP2 (from UniProt Q13489 1-604)
binding [1]: no binding

HA-CHIP K30A (from UniProt Q9UNE7 1-303)
binding [2]: binds

B1: 6Myc-ML-IAP (protein, UniProt Q96CA5 1-298)
chain: MGPKDSAKCLHRGPQPSHWAAGDGPTQERCGPRSLGSPVLGLDTCRAWDHVDGQILGQLRPLTEEEEEEGAGATLSRGPAFPGMGSEELRLASFYDWPLTAEVPPELLAAAGFFHTGHQDKVRCFFCYGGLQSWKRGDDPWTEHAKWFPSCQFLLRSKGRDFVHSVQETHSQLLGSWDPWEEPEDAAPVAPSVPASGYPELPTPRREVQSESAQEPGGVSPAEAQRAWWVLEPPGARDVEAQLRRLQEERTCKVCLDRAVSIVFVPCGHLVCAECAPGLQLCPICRAPVRSRVRTFLS
binding [1]: no binding
